The other results are listed elsewhere or left out.
B1: chrX:39613801:39613802:+_ENSMUSG00000025862_ENSMUST00000069619|mus_hu|FALSE|FALSE (ssRNA)
RNA: GGGAGUUCUACAGUCCGACGAUCCAAAUUUAAAGGUGGAUGGCUCUCCCCUUGCGGAUUAGGCUCUUUAAAAGCAAAUUCUAUGCCAUCUUUGUGUAGCAUGGCAAUGGCUUCUCUUGUUUUCAACUGAUCAAGUCCAAAAGUCAACAGAGGAUUGAGCAUCA
B2: 32743988_32750049_11792_CDS_ENSG00000115760_ENST00000421745|human|control|control (ssRNA)
RNA: GGGAGUUCUACAGUCCGACGAUCAUUUUCCGCUUUAACUUUUUCUUUCUCUUCAUGGUUUUUCUUUUCUUUGUCAUCUUUUUGUUCACUAAUUAAUUUAGCUGUGAUACUUGGAGUAUCUGACACUCUGUCAAGAACAUCUGACAACAGAGGAUUGAGCAUCA
B3: chr12:121861850:121861851:+_ENSG00000170633_ENST00000361234|hu_mus|motif|central (ssRNA)
RNA: GGGAGUUCUACAGUCCGACGAUCUAGCAACAAUGUUGAAACUUACAUUCAUUAAAUAUUAGCAUUUAAAAUAUACAUGGCGGAUCGAGUGAACAUUCAGAGCAGUUACGGCUCAGGAUAGUCCACACUACCCAGUCAUGACAGCAACAGAGGAUUGAGCAUCA
B4: chr10:61005217:61005218:+_ENSG00000165443_ENST00000486074|perfect_dup|FALSE|FALSE (ssRNA)
RNA: GGGAGUUCUACAGUCCGACGAUCGUGAUUUCUGCCACGGUGCCCACAGAAAGAUCCACAGGGUCAGUGUAAAUGACUUCUAAAAUGACAUCCUGGGCAUGGUGGUAAACCAGCACCCCAUCUUCUUCUGUACAGGUCAAAAAUCAACAGAGGAUUGAGCAUCA
B5: chr13:48828011:48828012:+_ENSG00000136156_ENST00000607866|hu_mus|FALSE|FALSE (ssRNA)
RNA: GGGAGUUCUACAGUCCGACGAUCAAGAGCAAAAUACUUGUACAGGUACGCCCCUCCGAGGAUGACGCCAGCAAGCAUGAAGGCCAGUCCGAAACACAUGCACCAACACCACGCUCUCCUCUGUCCAACCGGAACCACGUCACCCAACAGAGGAUUGAGCAUCA
B6: chr5:24319680:24319681:-_ENSMUSG00000028945_ENSMUST00000030787|perfect_dup|FALSE|FALSE (ssRNA)
RNA: GGGAGUUCUACAGUCCGACGAUCAAGCUGAAGAUGAUACUCUUGACCAUUUACCGUGAUCAACUUGGUGAACGUGUUCUCUAUGGUUGGAUCGUAGGAAUCAACAAAUUGGCCUUCAACAAACUGAAUUGUCAAUGAGGACUUCAACAGAGGAUUGAGCAUCA
B7: chr12:105536279:105536280:+_ENSG00000136051_ENST00000332180|hu_mus|hu_hu_hu_mus_True|1_38 (ssRNA)
RNA: GGGAGUUCUACAGUCCGACGAUCAGCACUGAACAUGUAAUGUAAUCUGGCUGCAUCGACAGCAUUUUCAUAUACAUCAUCUAAAUAAAUCGGGAAGACAGCUCGAUGCCAGUAUAAAAAACAGCAGUCACACUGUGUUUGGACCAACAGAGGAUUGAGCAUCA
B8: chr10:27411851:27411852:-_ENSG00000136758_ENST00000375972|hu_mus|motif|central (ssRNA)
RNA: GGGAGUUCUACAGUCCGACGAUCCGUCUGCCUUGAAUACGGGUGCAUUGGAGAUUCAAUUCUCUUUCCACCAACAGAAUCGGAUUCAUCGAUGAAUAUAACACAAGGAGCAUUUGCUUUUGCUUCUCUAAAAAGAUUUCUGAUCAACAGAGGAUUGAGCAUCA
B9: chr4:83347727:83347728:-_ENSG00000152795_ENST00000602300|hu_hu|FALSE|FALSE (ssRNA)
RNA: GGGAGUUCUACAGUCCGACGAUCCCCAGUAUAAUCAUAUCCGCCAUAGCCACUAUAGUUUUGAUCACCACCAUAGGCACUAUUGUAAUUUCCAUAUCCUUGAUCAUAAUAGUUAUUAAAUCCUUGGUUCCAGUUUUGGCCCUGCAACAGAGGAUUGAGCAUCA
B10: chr17:45747064:45747065:+_ENSG00000108424_ENST00000290158|hu_mus|FALSE|FALSE (ssRNA)
RNA: GGGAGUUCUACAGUCCGACGAUCGCCCACAGUCCACGCUGUUGUGUCUCGAACAACUACACUGGGGUCUUUCAUUAGUUCUAUUAGGGUGGGCAUAGCCUGUAUGACUAAUGGUUUCAGUUGAUUAGGCUCUGGUCCUUCCAACAACAGAGGAUUGAGCAUCA
B11: chr7:118218646:118218647:-_ENSMUSG00000005610_ENSMUST00000162415|mus_hu|motif|central (ssRNA)
RNA: GGGAGUUCUACAGUCCGACGAUCUUCCUGUUUGAGUAAACUGAUCAAAGAACUUGCUUUUUCUUUAUCUUCAUCGCUUCGGUCGGGUGACAGGAUGAUUACUUUGCUUAACAUCUCAGGAAGAAAGUGUUUAGGAGCCCUCAUCAACAGAGGAUUGAGCAUCA
B12: chr7:7679991:7679992:-_ENSG00000106399_ENST00000396682|hu_hu|hu_hu_hu_mus_False|48_48 (ssRNA)
RNA: GGGAGUUCUACAGUCCGACGAUCUGGGAUGAAUCUUUUCCAGCUUCCCCACGAAGCACACGGGCCGGUCGAUAUACUGUGGUAACAUGCCGGCGUUGACGCGCGCUUUGGGGAGCUGCAUUAUGUCCUCCAUGAUUCUGCCGCCAACAGAGGAUUGAGCAUCA
B13: chr17:72205386:72205387:+_ENSG00000172809_ENST00000584577|hu_hu|FALSE|FALSE (ssRNA)
RNA: GGGAGUUCUACAGUCCGACGAUCGGGCAGGGACUGCUUCAGUUUCUCUGCCUUCUCUUUGUCAGUGAUGACCAGGGUGUAAAGGUAUCUGCUGCAUCGAACUUUAAACUUCACGUUGUCCUUAUUUUUCUUGAUCUUGACAGACAACAGAGGAUUGAGCAUCA
B14: chr4:95690885:95690886:+_ENSMUSG00000028572_ENSMUST00000156910|mus_mus|mus_mus_mus_hu_False|18_98 (ssRNA)
RNA: GGGAGUUCUACAGUCCGACGAUCUUUAGAAAAUGUUAAUGUUAAAUCUAAAAUAUUUUCAAAGGCUUAUUUUAUUUUACCAGAAGUCACAGGCAAGCAGACACUACAAGAAUAUAUAAAUACAAACCUCAACAAUAUAACUGUCAACAGAGGAUUGAGCAUCA
B15: chr1:163117127:163117128:-_ENSG00000143248_ENST00000313961|hu_mus|hu_hu_hu_mus_False|58_78 (ssRNA)
RNA: GGGAGUUCUACAGUCCGACGAUCUGCUACAAAGGAUGUAACUCAACUCACAGGGCAUGAUUUCAUAGCCUGACCAGAUUACUACUUGAUUAGCUCCUUAUAAAAUUCAGAGCGCACAAAGCGGGGCAGAGAAUCCUUCUCCAUCAACAGAGGAUUGAGCAUCA
B16: 29022505_29022625_1578_3pUTR_ENSG00000213639_ENST00000296122|human|control|control (ssRNA)
RNA: GGGAGUUCUACAGUCCGACGAUCUUAAAAAUGUUUAGGGAAAAAAAUUAGAAGUAUUUGCCAUUAUUCUAGUGAAAACAAACAAAAACAAAACAAGCUCAAAAUAAUUAAACAACCAAGCAACACUAAAACCACAUUACACAGCAACAGAGGAUUGAGCAUCA
B17: 31658515_31661186_1340_CDS_ENSG00000163527_ENST00000295770|human|control|control (ssRNA)
RNA: GGGAGUUCUACAGUCCGACGAUCAAUGUGUAUUUUUGCAUACCCAGUAUCCCACAAUGAAUAAAACCUGCCACUCCAUGGUGCAAUGUAACCUGUAUAAGUCAAAUAGAUGACACUAAGGAACACAGCACCUGCAGCUAGUGACAACAGAGGAUUGAGCAUCA
B18: chr4:120564514:120564515:+_ENSMUSG00000032890_ENSMUST00000071093|mus_mus|motif|central (ssRNA)
RNA: GGGAGUUCUACAGUCCGACGAUCAAAGAAAAAGACAAGACAGAAAAGCAAGUGGAGACCAUAAGACAACAAGGCAGGGACGGAGCAAGGCCCACCAGUGGCCACAUCCCCUAUUUCCACCCCUGGAGAUUCCAUGGGCAAGAACAACAGAGGAUUGAGCAUCA
B19: 6283956_6284076_2007_3pUTR_ENSG00000116237_ENST00000343813|human|control|control (ssRNA)
RNA: GGGAGUUCUACAGUCCGACGAUCGCCAGCGUCUCACCUCUUAAAGCUUCGAUGUGUGACUCAAAGCCAACUUACUCUCCCAAACUUGCAAAACAAACAUACUGACUGAAUCUUAGUUGGGACUAUUUGCAGUAUUUAAGAUUACAACAGAGGAUUGAGCAUCA
B20: chr10:94818082:94818083:+_ENSG00000138190_ENST00000260762|hu_mus|FALSE|FALSE (ssRNA)
RNA: GGGAGUUCUACAGUCCGACGAUCCUACGUGUGCUGGGACAUACCAGUCACCAAGCCUCUGAGCUGUCUCACCACUGUCUCUAUCAGCUUCUGUCUGUCUCGGUCAUUCUUCCGGAACUGGGCGAAUAUGUUAUUCUUCUUGCUCAACAGAGGAUUGAGCAUCA
B21: chr4:54876292:54876293:-_ENSG00000109220_ENST00000263921|perfect_dup|FALSE|FALSE (ssRNA)
RNA: GGGAGUUCUACAGUCCGACGAUCCUAUAAAUAAAGCAAAUGCUAAUCUGGUCGAAAAAUCGGUGUCUUUGGUAAAAAUUCUAUGAGGAUGACAUAUUCCAUCAUGUUGUUCGUUUCACAUUUCCUUUUGCUCAGUCUCCAGUGCAACAGAGGAUUGAGCAUCA
B22: 120802235_120803636_2864_CDS_ENSG00000107581_ENST00000369144|human|control|control (ssRNA)
RNA: GGGAGUUCUACAGUCCGACGAUCUCUUCUAUGAGACCUGUCCUCAUCUCGCCCUUCUCCACGUCUCCACUCCUUCUCUGGCGGGCCUCUUCUCCACUCAGAAUCUGCUUCAGGUCCUUUUCUCCAGGUGCCUUCUGAAUCUCUCAACAGAGGAUUGAGCAUCA

Molecular target: T1, UNK ZnF1-3 (human, UniProt Q9C0B0 31-174)
T1 sequence: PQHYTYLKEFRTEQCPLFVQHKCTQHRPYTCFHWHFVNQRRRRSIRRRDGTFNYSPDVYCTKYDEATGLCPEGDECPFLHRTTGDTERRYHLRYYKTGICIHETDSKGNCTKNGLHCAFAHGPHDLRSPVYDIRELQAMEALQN
Test: nsRBNS (natural sequence RNA bind-n-seq); RBNS binding buffer (assumed for nsRBNS): 25 mM Tris pH 7.5, 150 mM KCl, 3 mM MgCl2, 0.01% Triton X-100, 500 ug/ml BSA, 20 U/ml SUPERase-In, 4 C; UNK is unkempt and MSI1 is Musashi-1; names of the RNAs are library labels; protein concentration not given here; high values mean tight binding

Binder	binding signal
B1	0.91 enrichment R
B2	0.312 enrichment R
B3	0.555 enrichment R
B4	0.68 enrichment R
B5	1.49 enrichment R
B6	0.949 enrichment R
B7	1.96 enrichment R
B8	1.09 enrichment R
B9	1.07 enrichment R
B10	0.516 enrichment R
B11	0.839 enrichment R
B12	0.366 enrichment R
B13	0.473 enrichment R
B14	2.72 enrichment R
B15	0.921 enrichment R
B16	2.96 enrichment R
B17	0.731 enrichment R
B18	1.46 enrichment R
B19	0.448 enrichment R
B20	0.589 enrichment R
B21	1.28 enrichment R
B22	0.45 enrichment R

— publication PMC12136788
